The results in this text go back to PMC4336329 (PLoS ONE, 2015).

Out of some 310,000 compounds screened, about 2,200 (0.71%) showed an effect of 50% or more. The effect is printed as a negative number. Some of the results follow.

The target of this assay is human ether-à-go-go-related gene (hERG) potassium channel (human, UniProt Q12809). Put plainly: primary screen, population patch clamp on CHO cells stably expressing hERG.
human ether-à-go-go-related gene (hERG) potassium channel, sequence (Q12809 whole entry, looked up): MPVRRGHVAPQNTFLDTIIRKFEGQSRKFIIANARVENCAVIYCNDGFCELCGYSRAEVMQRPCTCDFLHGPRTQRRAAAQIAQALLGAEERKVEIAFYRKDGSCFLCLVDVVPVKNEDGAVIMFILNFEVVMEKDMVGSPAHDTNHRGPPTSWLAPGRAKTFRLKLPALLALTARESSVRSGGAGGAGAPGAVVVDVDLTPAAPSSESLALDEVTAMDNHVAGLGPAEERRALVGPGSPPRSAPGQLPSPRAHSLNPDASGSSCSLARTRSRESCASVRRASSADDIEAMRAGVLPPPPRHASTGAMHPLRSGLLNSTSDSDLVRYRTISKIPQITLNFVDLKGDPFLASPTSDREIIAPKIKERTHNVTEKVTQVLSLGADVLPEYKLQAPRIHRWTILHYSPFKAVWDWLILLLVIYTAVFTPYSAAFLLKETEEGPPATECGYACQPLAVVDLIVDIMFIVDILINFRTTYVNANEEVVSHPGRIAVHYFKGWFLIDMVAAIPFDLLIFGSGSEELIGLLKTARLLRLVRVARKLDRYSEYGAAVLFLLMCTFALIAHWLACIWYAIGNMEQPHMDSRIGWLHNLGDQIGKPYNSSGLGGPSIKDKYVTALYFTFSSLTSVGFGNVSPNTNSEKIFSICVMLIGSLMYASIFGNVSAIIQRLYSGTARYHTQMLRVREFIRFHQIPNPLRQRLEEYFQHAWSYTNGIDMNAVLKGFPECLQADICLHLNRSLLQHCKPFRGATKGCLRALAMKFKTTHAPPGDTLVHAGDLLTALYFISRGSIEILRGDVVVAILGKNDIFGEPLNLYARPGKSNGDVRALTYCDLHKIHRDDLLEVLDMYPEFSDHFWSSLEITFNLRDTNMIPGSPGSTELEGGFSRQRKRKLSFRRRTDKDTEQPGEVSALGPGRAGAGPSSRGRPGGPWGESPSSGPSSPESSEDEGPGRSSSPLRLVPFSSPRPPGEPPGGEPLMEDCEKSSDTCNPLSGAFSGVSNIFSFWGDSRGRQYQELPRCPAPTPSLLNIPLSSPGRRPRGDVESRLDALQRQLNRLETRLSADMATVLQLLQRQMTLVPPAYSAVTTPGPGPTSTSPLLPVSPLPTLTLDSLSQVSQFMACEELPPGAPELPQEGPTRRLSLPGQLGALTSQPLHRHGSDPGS
For `COc1ccc2c(c1)CC[C@@H]1[C@@H]2CC[C@]2(C)[C@@H](C(=O)O)C[C@@H]12`, the “hERG current change (%, negative = inhibition) at 1uM” value amounted to 8.15%. For `Cc1cc(C(=O)Cn2nc(C(=O)O)c3ccccc3c2=O)c(C)n1-c1ccccc1`, the “hERG current change (%, negative = inhibition) at 1uM” value came out at 10.5%.

For the molecule `Cc1ccccc1CN1CCN(CC(=O)NCc2ccc3c(c2)OCO3)C1=O`, the “hERG current change (%, negative = inhibition) at 1uM” value was -0.614%. For `C=CCN1C(=O)C(C)(C)N(C(C)=O)c2ccccc21` the value was 5.66%; for `CCOC(=O)Cc1csc(NC(=O)CCCC(=O)O)n1`, 12.6%; for `Cc1cc(=O)[nH]c(SC(C(=O)O)c2ccccc2)n1` (stereo not drawn), -4.85%.

For `Nc1ccc(C(=O)c2cccs2)cc1`, the “hERG current change (%, negative = inhibition) at 1uM” value is given as 11.6%. For `CCS(=O)(=O)NCCc1csc(-c2cccnc2)n1` the value was 20.2%; for `CC1CCCN(CCCNC(=O)c2ccc(N3CCCC3=O)cc2)C1` (stereo not drawn), 13.9%; for `COc1ccc(NC(=O)N/C=C/c2ccc(Cl)cc2)cc1`, 9.77%. To `COC(=O)CCC(=O)OC1(C)C(=O)C=C2C=C(C3CC3)N(CCCOC(C)C)C=C2C1=O` (stereo not drawn) belongs 7.79%; to `CCCSc1nc2sc3c(c2c(=O)[nH]1)CC(C)(CC)OC3` (stereo not drawn), 19.9%. To `Cl.c1ccc(C2CSc3ccccc3N2)cc1` (stereo not drawn) belongs 3.09%; to `CCOc1ccccc1N1CCN(C(=O)CC(C)(C)C)CC1`, 5.31%; to `CCOC(=O)N1CCN(C(=O)c2ccc3nc4ccc(Cl)cc4c(=O)n3c2)CC1`, 5.16%.

With `NC(=O)CC(NC(=O)Cc1ccc(Br)cc1)c1ccc(NC2CCN(Cc3ccccc3)CC2)c([N+](=O)[O-])c1` (stereo not drawn), the “hERG current change (%, negative = inhibition) at 1uM” value is recorded as 18.5%. To `O=C1Nc2ccccc2C1=Nc1ccc(F)cc1` belongs 12.6%. As to `CCOc1ccccc1N1CCN(CC(=O)Nc2nc(C)c(C(=O)N(C)C)s2)CC1`, the “hERG current change (%, negative = inhibition) at 1uM” value was found to be 3.07%. For `CCCCC(CC(O)COCC(C)C)C(=O)NNC(=S)Nc1ccccc1` (stereo not drawn) the value was 10.1%; for `Cc1nc(C(C)NC(=O)c2cc(COc3ccc(F)c(F)c3)on2)cs1` (stereo not drawn), 6.73%; for `C/C(=N\N(Cc1ccccc1)c1ccccc1)c1ccncc1.O=P(O)(O)O`, 0.864%.

Regarding `CCCCCn1c(SCCCC)nc2c1c(=O)[nH]c(=O)n2C`, the “hERG current change (%, negative = inhibition) at 1uM” value was found to be 0.678%. For `CC(C)(C)NS(=O)(=O)c1ccc2nc(NC(=O)c3ccc(N4C(=O)CCC4=O)cc3)sc2c1`, the “hERG current change (%, negative = inhibition) at 1uM” value is reported as 0.528%.

`CCn1c(COc2ccccc2)nnc1SCC(=O)Nc1cc(OC)ccc1OC`: the “hERG current change (%, negative = inhibition) at 1uM” value is on record as 1.97%.

With `COc1cc(CNc2ccc(CNc3ncn[nH]3)cc2)ccc1OCc1ccccc1`, the “hERG current change (%, negative = inhibition) at 1uM” value is recorded as 9.96%. As to `Cc1cc(C)c(NC(=O)CSc2nnc(-c3ccco3)n2N)c(C)c1`, the “hERG current change (%, negative = inhibition) at 1uM” value came out at 6.78%. Take `Cc1cc(SCC(=O)NC(=O)c2cccn2C)nc2ccccc12`: the “hERG current change (%, negative = inhibition) at 1uM” value came out at 5.52%. For `CCc1ccc2nc(SCC(=O)N3CCCCC3)c(C#N)cc2c1` the value was 10.7%; for `O=C(COc1ccccc1)NC1=NCCS1`, 2.23%. For `O=C(COc1ccc([N+](=O)[O-])cc1)N(C1CCCCC1)C1CCS(=O)(=O)C1` (stereo not drawn) the value was 7.44%; for `CC1(C)CC(NS(=O)(=O)c2ccc(F)cc2)CC(C)(C)N1`, 3.57%; for `COc1ccc(Cn2c(=O)oc3ccc(C)cc32)cc1OC`, 8.66%. For `CCOC(=O)CNC(=O)CSc1nnc(C)c(=O)[nH]1` the value was 5.59%; for `CC(=O)N1c2ccc(S(=O)(=O)N3CCCC3C(=O)Nc3cccc(F)c3)cc2CC1C` (stereo not drawn), -5.82%. In the case of `CC(C)c1nn2c(=O)cc(O)nc2s1`, the “hERG current change (%, negative = inhibition) at 1uM” value is reported as 12.6%. To `Cc1ccc(C(CNC(=O)C(=O)Nc2ccc3c(c2)OCCO3)N2CCN(C)CC2)cc1` (stereo not drawn) belongs -3.79%; to `CCOC(=O)c1cc(C(=O)OCC)c(=O)[nH]c1SCc1ccccc1`, 18.3%; to `Cc1cc(N2CCN(c3ccccc3F)CC2)nc2cc(O)ccc12.Cl`, 7%. For `CCc1ccccc1NC(=O)Cn1nc(C(F)(F)F)c2c1CCC2` the value was 2.3%. With `Nc1ccc(N2CCCCC2)c(S(=O)(=O)Nc2ccccc2Cl)c1`, the “hERG current change (%, negative = inhibition) at 1uM” value is given as -16.3%. To `CCOc1ccc(NC(=O)c2ccccc2NC(=O)c2cccnc2)cc1` belongs 12.3%. To `Cc1ccc([N+](=O)[O-])cc1N(CC(=O)N1CCCCC1)S(C)(=O)=O` belongs 12.4%; to `CC1CCN(C(=O)c2[nH]cnc2C(=O)N[C@@H](C)C(=O)OCc2ccccc2)CC1`, 9.66%; to `O=C(NCCN1CCOCC1)c1cc(-c2cccs2)nc2ccccc12`, 7.79%. To `CN(C)S(=O)(=O)Oc1ccsc1C(=O)Nc1ccccc1Cl` belongs 5.7%.
